Test results: the supplement of paper PMC5499739
The full ranking holds about 16,000 sequences; the median of “Z-score” is about -0.37, and the highest 2% start at about 3.2. The list shows a part of the results.

These sequences were tested on RBM10 RRM1-ZnF (GST-tagged construct) (assay: RNAcompete 7-mer binding Z-score; higher = stronger binding preference).
Method: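 RNAcompete: 20 pmol GST-tagged RBM10 RNA-binding constructs were incubated with a designed RNA pool of about 241,000 sequences up to 41 nt (1.5 nmol) on glutathione beads for 30 min at 4 °C and washed. Bound RNAs were identified by microarray hybridisation. Each RNA 7-mer is scored by a one-sided Z-score of its enrichment, computed over probes that contain the 7-mer within longer pool sequences.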

Row | Sequence | RNAcompete 7-mer binding Z-score
1 | AUACUUA | -0.435
2 | UUACACA | -0.62
3 | UUAUACG | -0.6
4 | UAGAUAU | -0.272
5 | UAUUGGA | 0.615
6 | CGGUAAC | 0.189
7 | CCGUGAA | -0.646
8 | UAGCUUA | -0.617
9 | AACAAUA | -0.266
10 | GUCAAUU | -0.662
11 | CGGGGUC | 2.14
12 | AGCAUUU | -0.759
13 | AUGGGCC | 0.907
14 | GUUCACA | -0.529
15 | UCACCUG | -0.617
16 | CGCACCC | -0.47
17 | GGGCGGG | 3.66
18 | ACACUAG | -0.337
19 | GGUGAGA | 2.57
20 | UUCCUUU | -0.841
21 | UCCGUGU | -0.701
22 | GAACUUU | -0.698
23 | UUGCUAG | -0.337

Row | Sequence | RNAcompete 7-mer binding Z-score
24 | CGUACCC | -0.662
25 | UCAUCGG | -0.106
26 | CCAUCAU | -0.815
27 | AAUGUAC | 0.0593
28 | GCGAAUC | -0.256
29 | GUUCGGG | 1.57
30 | UACGACU | -0.665
31 | GAGCCCC | -0.275
32 | UGUCCAU | -0.659
33 | UUACAAU | -0.383
34 | CACGUUA | -0.357
35 | AUCCGCA | -0.802
36 | CGUGUAA | -0.233
37 | AGGCGAA | 0.865
38 | UUGUCUG | -0.61
39 | UAAACGU | -0.444
40 | GGACGUG | 2.12
41 | CUCGUGG | 0.488
42 | GUGUAGC | 0.452
43 | AGUACUG | -0.0999
44 | UUGGAAC | 0.599
45 | UUAACCG | -0.633
46 | CUGUAAC | -0.694

Row | Sequence | RNAcompete 7-mer binding Z-score
47 | GGAUACC | 0.485
48 | GCAUCUA | -0.464
49 | AAUCAUG | -0.171
50 | UAUAGGA | 1.25
51 | AAAACCA | -0.542
52 | GAACAAU | -0.0609
53 | UUAAUCG | -0.422
54 | GAGUGCA | 0.563
55 | GGAGCGC | 1.27
56 | AAACGUG | 0.361
57 | CUAACGA | -0.578
58 | UAAGUCG | -0.373
59 | AUUAAGU | -0.217
60 | CCUCCUU | -0.818
61 | UUAUCGG | -0.171
62 | GUUUCUU | -0.542
63 | ACAAUAA | -0.49
64 | AAAGGAG | 3.8
65 | AGCGUGG | 2.32
66 | GGAUUUC | 0.00404
67 | ACAGUCC | -0.73
68 | AGGAGUC | 0.556
69 | AGCGCUG | 0.0593

Row | Sequence | RNAcompete 7-mer binding Z-score
70 | CUCAGGC | -0.126
71 | UUUAUCA | -0.756
72 | CAACCGC | -0.828
73 | GAAUGUC | -0.301
74 | UCCAGUU | -0.639
75 | UUUAGUU | -0.448
76 | UUAGAUA | -0.383
77 | ACGAUUU | -0.711
78 | UGACGGA | 1.07
79 | AUUUUGU | -0.629
80 | GGGUUUC | 1.95
81 | CAACCGG | -0.415
82 | GUUUCCC | -0.376
83 | UUCGCGA | -0.61
84 | UUCCCGG | -0.743
85 | CGGAUAA | 0.631
86 | UCAGUAU | -0.409
87 | CCCAGAA | -0.717
88 | UAGUAGG | 1.67
89 | UAGUAUA | -0.116
90 | CCUCGUG | -0.584
91 | UUCCGAA | -0.62
92 | AACGCAU | -0.493
